Over roughly 33,000 sequences, “E-score (-0.5 to 0.5)” has its median near -0.036; the highest 2% begin near 0.37. Some of the results follow.
Target: T1, Yer064c (UniProt P40041)
T1 sequence: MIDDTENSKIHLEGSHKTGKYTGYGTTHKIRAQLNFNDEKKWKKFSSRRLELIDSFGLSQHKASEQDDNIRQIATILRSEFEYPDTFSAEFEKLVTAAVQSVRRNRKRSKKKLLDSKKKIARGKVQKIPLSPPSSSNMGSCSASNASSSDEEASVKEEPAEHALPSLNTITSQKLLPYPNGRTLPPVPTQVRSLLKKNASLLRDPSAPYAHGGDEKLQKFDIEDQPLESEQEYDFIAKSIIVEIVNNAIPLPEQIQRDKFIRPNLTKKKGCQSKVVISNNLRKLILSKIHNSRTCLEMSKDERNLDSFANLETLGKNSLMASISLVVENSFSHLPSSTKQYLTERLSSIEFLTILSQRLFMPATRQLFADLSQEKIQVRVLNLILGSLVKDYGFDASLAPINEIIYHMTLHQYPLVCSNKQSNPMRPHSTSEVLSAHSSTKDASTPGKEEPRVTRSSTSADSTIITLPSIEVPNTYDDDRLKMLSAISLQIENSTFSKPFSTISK
Experiment: PBM E-score (8-mer binding enrichment) (E-score (-0.5 to 0.5)); higher = stronger / more preferred TF binding; most listed sequences are background and not binding sites
Details: protein concentration: 200 nM; construct: GST-full length
Method in brief: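 Full-length yeast transcription factors or their DNA-binding domains, GST-tagged and expressed with PURExpress, were applied at about 100-200 nM to universal all-10-mer Agilent arrays. These arrays had been made double-stranded by primer extension on fresh or once-stripped slides. Detection used fluorescent anti-GST, normalisation used masliner, and E-scores for ungapped eight-base words pooled with reverse complements came from the Universal PBM Analysis Suite.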

Sequence | PBM E-score
ATGTTAAG | -0.112
GGTCTGGA | -0.274
GAAATCCC | -0.319
ACGAGCTA | -0.117
CCTAAAAC | -0.101
CTTCCACA | -0.1
AGGATTAC | -0.0301
ATCGCCAC | -0.132
TACTCATA | 0.343
AACGAAAC | -0.0959
GGCGTCAC | -0.286
GGGCCCTA | -0.217
AAACTTTG | 0.142
AACATCTC | -0.143
GTAACCTA | -0.139
GCTCCAAC | -0.164
ACGATCAG | 0.00978
TGAAAGCA | -0.153
CTGAGCCA | 0.31
CCCAGAAG | -0.0291
AGCCTTGG | -0.103
CAACCAGA | 0.0713
AGAATACT | -0.0191
AACTAGTA | 0.149
AAGTGTCC | -0.174

Sequence | PBM E-score
AACGAGTT | 0.0273
CAACTAAA | 0.12
GCACTCTA | -0.172
ATGTATGA | 0.241
GCCATCAC | -0.0511
CCCATTGA | -0.0752
CGAGGCTA | -0.0432
CAAGTAAC | 0.0215
AGTCAAAC | 0.35
GCAAACAA | 0.0387
GGCGTCCA | -0.271
CAACGTTG | 0.0696
CTCGTTAA | 0.166
AATTCGGA | -0.0904
ACGTTTAA | 0.099
ATCTTTGC | -0.0319
GCTTTACA | -0.0319
ACATAGGG | 0.0467
GATAAACA | 0.0421
CGGATCAG | 0.107
ACGGGTAT | 0.161
CAACATCG | -0.127
GGCAACTA | -0.0239
CAGGGGTA | 0.00181
CGCTAGCG | -0.0839

Sequence | PBM E-score
AACCTTGT | -0.0899
CGGCCCAG | -0.207
CCTCGACG | -0.173
ACCACTAG | -0.162
ACCGTCAT | -0.0945
TCTTCCCA | 0.00323
AAGAATGA | 0.262
AAGATGCT | -0.0377
GCGACAGC | -0.265
CCAATCCA | -0.28
ACTCCAGC | 0.142
CCCGTCCG | -0.18
GACTCCCC | 0.405
AACCCCAC | -0.22
GCGGCGTA | -0.146
AACCCCAT | -0.15
CAAGCACG | -0.0181
ACATGGCA | -0.116
ACATTGTG | -0.0703
AAACACGG | -0.147
ACGCGAAG | 0.0551
AGAGGGGG | -0.38
AGGAGTGA | 0.105
ATTAATTA | 0.203
AAACTACC | -0.139

Sequence | PBM E-score
CGTTTCGA | -0.102
ACGTGGCC | -0.212
CAACCCGA | -0.0716
GTAGGAAA | 0.00646
GCTCCGTA | -0.249
ATATATAC | 0.093
AGCTCCCG | -0.0932
CATTCAAA | -0.0755
CACAGTCG | 0.203
ATGCAACA | -0.065
TATATCCA | -0.172
AACCAGGG | -0.11
GTGTCAAC | 0.0879
AGAATTTG | -0.102
AAAGCTGG | -0.131
GCCTATAA | -0.224
GCGGACAC | -0.12
AACCCAGC | 0.0469
GCCTCAGA | -0.0779
CAACCCCG | -0.126
CGAACTCC | -0.0419
AATTGTCT | -0.0929
CAATTTTA | 0.103
AGGGTTGG | -0.248
TACCGATA | 0.0114

Sequence | PBM E-score
AATGCGCA | -0.119
AGTTACGG | 0.0599
CTTCGCAC | -0.0934
TGGAACAA | 0.0192
GTCTCATA | 0.274
CAGACAGC | -0.107
ACAAGAGC | 0.0292
GTGCGTAA | -0.0832
AATTCCTG | -0.107
ATGTATTG | -0.0298
AACAATAC | 0.0647
CAGGTATC | -0.233
TCACCACA | 0.183
ATTACAAA | 0.205
CATTTTTC | 0.116
AGACCCTA | -0.101
CAAGCCAC | 0.0724
ATTCAGCG | -0.0722
AAGTCTTC | 0.282
AAATACGC | -0.128
ACAATTCG | -0.121
AGATGTTC | -0.196
GACCCACA | 0.114
AAATCCGC | -0.16
CGGCACAA | 0.0246

Sequence | PBM E-score
CCGCCCGA | -0.0938
ATACGAAA | 0.0623
ACCAGGGG | -0.0889
AAATCGAG | 0.104
GGTTTGTA | -0.126
CGGCCTTC | -0.26
CCATGTAC | -0.128
ACTAATAC | 0.166
CGCTGCAC | -0.103
CTGTTAAA | 0.0871
GCCGTAAC | -0.0398
CAGCCGGA | -0.00388
AATACTGC | -0.0826
ACTCCTTA | 0.0691
CATTCCTA | 0.108
GCCCACAA | -0.0851
ACGGCACC | -0.33
TCGAATCA | 0.369
AAGTATAA | 0.123
GTGCCGCA | -0.152
TCATTCCA | 0.222
AGCTCGAA | -0.119
CAATGGCG | -0.256
TCGAGGCA | -0.173
AAAAGCGC | -0.162

Sequence | PBM E-score
GAAATGGC | -0.103
CGAGAGCC | -0.156
ACCTAAGT | 0.189
ATTGTCAA | 0.0689
AACTAACC | 0.0831
GATAAATC | 0.048
ACGGGACT | 0.192
CAGTTACC | -0.0809
ACGCCGCA | -0.172
TCCCTCCA | -0.213
CATAGAAG | -0.0371
CAGCGGTA | -0.0158
AGCCTAGA | -0.228
CGTAGGGC | -0.276
AATTGACA | -0.116
ACGCTTCT | -0.19
CCCGTACA | -0.279
CGACTGAC | 0.315
GATAGCTA | -0.0995
CAAATATC | 0.00481
GTACCAGA | -0.00811
TGGTTTAA | 0.138
